{"source": "PubChem BioAssay AID1476", "about": "(National Center for Advancing Translational Sciences (NCATS), 2009)", "note": "Among all 200,000 compounds or so, about 4,500 (2.2%) were called active. The inconclusive results got no clear call from the source; some entries with a clear call stand among them for comparison. Calls follow the shape of the dose curve; as a rule, active = well fitted inhibition curve with a large enough effect; inconclusive = small, poorly fitted or top-dose-only effect, or effect the other way; inactive = flat fitted curve, though single readings scatter. A potency beside an inconclusive call is a rough fit, not a confirmed value. The source holds several records for some structures; these can differ, active in one and inactive in another. Potency is read from the fitted curve at half-maximal effect; tags tell the direction and shape of the fitted curve."}
{"target": "Cruzipain (Trypanosoma cruzi) (UniProt P25779)", "sequence (P25779 whole entry, looked up)": "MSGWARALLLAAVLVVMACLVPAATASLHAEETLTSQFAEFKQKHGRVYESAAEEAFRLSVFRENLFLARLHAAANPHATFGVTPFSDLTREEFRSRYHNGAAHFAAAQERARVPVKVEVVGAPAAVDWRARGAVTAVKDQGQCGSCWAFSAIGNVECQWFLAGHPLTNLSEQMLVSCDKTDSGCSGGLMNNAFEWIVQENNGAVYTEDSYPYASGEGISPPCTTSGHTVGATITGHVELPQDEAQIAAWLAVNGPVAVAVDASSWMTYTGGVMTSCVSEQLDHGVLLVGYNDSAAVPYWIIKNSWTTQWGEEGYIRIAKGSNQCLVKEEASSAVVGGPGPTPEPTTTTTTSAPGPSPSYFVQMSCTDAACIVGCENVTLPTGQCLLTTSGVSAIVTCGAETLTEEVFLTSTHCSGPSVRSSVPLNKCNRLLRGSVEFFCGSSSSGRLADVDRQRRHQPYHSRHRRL", "assay": "qHTS Assay for Promiscuous and Specific Inhibitors of Cruzain (without detergent); also: nearly all actives have a fitted effect of over 40% in size;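 as to max response, negative = inhibition: plate controls were enzyme without inhibitor for no effect and buffer without enzyme for full effect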", "conditions": "purified cruzain, Z-FR-AMC fluorescence, no detergent", "summary_of_the_method": "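Purified cruzain at 1.5 nM, pre-incubated 15 min with compound at room temperature in 100 mM sodium acetate pH 5.5, 5 mM DTT, 0.00005% Triton X-100. Reaction started with 2 uM Z-FR-AMC; AMC fluorescence increase over 60 s gives rate.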"}
{"smiles": "CC(=O)c1ccc(NC(=O)c2cccc(NC(=O)N3CCSc4ncccc43)c2)cc1", "max response, negative = inhibition": "inactive: -17.8%"}
{"smiles": "CCCN(C(=O)C1CCN(S(=O)(=O)c2c(C)noc2/C=C/c2ccc(C)cc2)CC1)c1ccccc1F", "max response, negative = inhibition": "inactive: 0.0028%"}
{"smiles": "Cc1cccc(NC(=O)C2CCC(CNS(=O)(=O)c3ccc4c(c3)CCCC(=O)N4)CC2)c1C", "note": "(stereo not given)", "max response, negative = inhibition": "inactive: -10.8%"}
{"smiles": "COc1cc(C(=O)NCc2cccc3ccccc23)ccc1OCc1ccccc1", "Potency": "inconclusive: 39.8 µM [inhibitor, single point]"}
{"smiles": "CCn1c2ccccc2c2cc(NC(=O)COc3cc(C)c(Cl)c(C)c3)ccc21", "Potency": "inconclusive: 6.31 µM [inhibitor, single point]"}
{"smiles": "COC(=O)[C@@]1(Cc2ccccc2)[C@H]2c3cc(C(=O)N4CCCC4)n(CC4CC4)c3C[C@H]2CN1C(=O)c1ccccc1", "Potency": "inconclusive: 25.1 µM [activator, partial curve]"}
{"smiles": "O=C1C=C(Nc2ccc(Cl)cc2)C(=O)N1c1ccc(Cl)cc1", "Potency": "active: 6.31 µM"}
{"smiles": "CC(=O)N1c2c(cc(Br)cc2S(=O)(=O)N2CCN(c3ccccn3)CC2)CC1C", "note": "(stereo not given)", "Potency": "inconclusive: 31.6 µM [activator, single point]"}
{"smiles": "CCOc1ccc(CCNC(=O)C2CCCN(c3nnc(C)c4c(C)n(-c5ccccc5)nc34)C2)cc1", "note": "(stereo not given)", "max response, negative = inhibition": "inactive: -4%"}
{"smiles": "COc1ccc(CC(=O)Nc2cccc(-c3nnc(-c4ccc(C)cc4)o3)c2)cc1OC", "Potency": "inconclusive: 31.6 µM [activator, single point]"}
{"smiles": "O=C(N/N=C/c1ccc([N+](=O)[O-])o1)c1cc(-c2cccc(Br)c2)nc2ccccc12", "Potency": "inconclusive: 39.8 µM [inhibitor, single point]"}
{"smiles": "CCOC(=O)C1=C(c2ccccc2)N=c2s/c(=C\\c3ccco3)c(=O)n2C1c1cccs1", "note": "(stereo not given)", "Potency": "inconclusive: 39.8 µM [activator, single point]"}
{"smiles": "Cc1ccc(Nc2cc(C(=O)NC3CCCC3)c3ccccc3n2)cc1C", "max response, negative = inhibition": "inactive: 7.09%"}
{"smiles": "O=C(Cc1ccccc1)Nc1ccc(NC(=O)c2cccc(Cl)c2)cc1", "Potency": "active: 25.1 µM"}
{"smiles": "COc1ccccc1N1CCN(C(=O)C2CCN(S(=O)(=O)c3cccc4nonc34)CC2)CC1", "Potency": "inconclusive: 31.6 µM [activator, partial curve]"}
{"smiles": "Cc1ccc(NC(=O)COc2ccc3oc4c(c3c2)CCCC4)c(C)c1", "max response, negative = inhibition": "inactive: 10.1%"}
{"smiles": "O=C(CC1Nc2ccccc2NC1=O)Nc1ccccc1", "note": "(stereo not given)", "Potency": "inconclusive: 12.6 µM [inhibitor, partial curve, poor fit]"}
{"smiles": "Cc1cccc(C(=O)NC(=S)NNC(=O)c2ccc(Cl)cc2)c1", "Potency": "inconclusive: 39.8 µM [inhibitor, single point]"}
{"smiles": "O=C(NC1=NCCS1)c1cc(-c2ccc(-c3ccccc3)cc2)nc2ccccc12", "Potency": "active: 7.94 µM"}
{"smiles": "Cn1ncc(C(=O)N2CCN(c3ccccc3)CC2)c1C1CCN(C(=O)OC(C)(C)C)CC1", "Potency": "inconclusive: 39.8 µM [activator, single point]"}
{"smiles": "Cc1cc(C)cc(N2C(=O)CS(=O)(=O)C23C(=O)N(Cc2ccc(F)cc2)c2ccc(C)cc23)c1", "note": "(stereo not given)", "Potency": "inconclusive: 2 µM [inhibitor, full curve]"}
{"smiles": "Cc1oc2c(c1C(=O)c1ccc(Cl)cc1)C(=O)C(=O)c1ccccc1-2", "Potency": "inconclusive: 39.8 µM [inhibitor, single point]"}
{"smiles": "O=c1cc(-c2cccc(-c3ccc(C(F)(F)F)cc3)c2)c2cc3c(cc2o1)OCO3", "Potency": "inconclusive: 35.5 µM [inhibitor, single point]"}
{"smiles": "COc1ccc(Nc2nc(-c3cc4cccc(OC)c4oc3=O)cs2)cc1", "Potency": "inconclusive: 31.6 µM [inhibitor, single point]"}
{"smiles": "CN(C)S(=O)(=O)c1ccc(N2CCCC2)c(C(=O)Nc2nc3ccccc3s2)c1", "Potency": "inconclusive: 39.8 µM [inhibitor, single point]"}
{"smiles": "Cc1cccc(NC(=O)CSc2nnc(-c3cccs3)o2)c1", "max response, negative = inhibition": "inactive: -4.56%"}
{"smiles": "O=C(COC(=O)c1ccc(Cl)s1)c1cc2ccccc2o1", "Potency": "inconclusive: 0.794 µM [inhibitor, full curve]"}
{"smiles": "CC1CN(c2oc(COc3ccc(Cl)cc3Cl)nc2C#N)CC(C)O1", "note": "(stereo not given)", "Potency": "inconclusive: 39.8 µM [activator, single point]"}
{"smiles": "Cc1cc(C)c2c(=O)cc(C(=O)NCCc3ccc(S(N)(=O)=O)cc3)oc2c1", "max response, negative = inhibition": "inactive: -2.7%"}
{"smiles": "COc1ccc2c3c([nH]c2c1)C(C)=NCC3", "Potency": "active: 10 µM"}
{"smiles": "O=C(c1cc(-c2cccnc2)nc2ccc(Cl)cc12)N1CCC2(CC1)OCCO2", "Potency": "inconclusive: 25.1 µM [activator, single point]"}
{"smiles": "COc1cccc(Cn2c(=O)c(C)nc3cnc(OCc4ccccc4)nc32)c1", "max response, negative = inhibition": "inactive: 29.1%"}
{"smiles": "O=C(CNC(=O)c1ccccc1)OCC(=O)N1c2ccccc2Sc2ccccc21", "Potency": "active: 10 µM"}
{"smiles": "COc1ccc(NC(=O)c2cc(-c3ccccc3)nc3c2c(C)nn3-c2ccccc2)c(OC)c1", "Potency": "inconclusive: 31.6 µM [inhibitor, partial curve, poor fit]"}
{"smiles": "NC(=O)CSc1ncc2c(n1)-c1ccccc1N(Cc1ccccc1)S2(=O)=O", "max response, negative = inhibition": "inactive: 5.1%"}
{"smiles": "COc1ccc(/C=C/C(O)=C2/C(=O)N(C)C3(C)CC2c2ccccc2O3)cc1", "note": "(stereo not given)", "Potency": "inconclusive: 39.8 µM [inhibitor, single point]"}
{"smiles": "O=C(CCc1[nH]c2ccccc2c1Sc1ccccc1)N(CCO)CCO", "Potency": "inconclusive: 31.6 µM [activator, single point]"}
{"smiles": "CCCc1nc2c(sc3nc4c(cc32)COC(C)(C)C4)c(=O)n1Cc1ccco1", "Potency": "inconclusive: 20 µM [activator, single point]"}
{"smiles": "O=C(COC(=O)c1cc(-c2cccs2)nn1-c1ccccc1)Nc1cc([N+](=O)[O-])ccc1Cl", "Potency": "inconclusive: 39.8 µM [inhibitor, single point]"}
{"smiles": "O=C(Nc1nc(-c2cccc([N+](=O)[O-])c2)cs1)C(c1ccccc1)c1ccccc1", "Potency": "active: 10 µM"}
{"smiles": "COc1ccccc1C(=O)NCC(=O)N/N=C/c1cc(Br)ccc1OC(=O)/C=C\\c1ccco1", "Potency": "inconclusive: 25.1 µM [inhibitor, single point]"}
{"smiles": "CN(C)c1ccc(C(CNC(=O)COc2ccccc2)N2CCOCC2)cc1", "note": "(stereo not given)", "max response, negative = inhibition": "inactive: 0.926%"}
{"smiles": "COC(=O)c1ccc(Cn2c(=O)cc(C)c3c(C)nn(C)c32)cc1", "max response, negative = inhibition": "inactive: 11.2%"}
{"smiles": "Cc1cc(=O)[nH]c2nnc(SCC(=O)Nc3cc(C(F)(F)F)ccc3Cl)n12", "Potency": "inconclusive: 39.8 µM [activator, single point]"}
{"smiles": "CC(C)c1ccc(C(=O)N2CCCN(C(=O)c3ccc(C(C)C)cc3)CC2)cc1", "Potency": "inconclusive: 31.6 µM [activator, single point]"}
{"smiles": "Cc1ccc2c(CNCc3cccs3)c(C(=O)O)n(Cc3ccc(F)cc3)c2c1", "Potency": "inconclusive: 25.1 µM [activator, single point]"}
{"smiles": "O=C(NC1CCCC1)c1cc2c(ccc3ccccc32)o1", "max response, negative = inhibition": "inactive: -4%"}
{"smiles": "Cc1cc(OCC(=O)Nc2ccc(N3CCCC3)cc2)cc(C)c1Cl", "Potency": "active: 3.98 µM"}
{"smiles": "CS(=O)(=O)c1ccc(Cn2c3c(c4cc(F)cc(F)c42)CCC[C@H]3CC(=O)O)cc1", "Potency": "inconclusive: 15.8 µM [activator, partial curve, poor fit]"}
{"smiles": "CCOC(=O)N1CCN(C(=O)C2CCN(S(=O)(=O)c3c(C)cc(C)cc3C)CC2)CC1", "Potency": "inconclusive: 39.8 µM [activator, single point]"}
{"smiles": "COCCCNC(=O)CC(c1cc(OC)c(OC)c(OC)c1)N1Cc2ccccc2C1=O", "note": "(stereo not given)", "Potency": "inconclusive: 1.26 µM [inhibitor, single point]"}
{"smiles": "Cc1ccc(-c2nc3ncccc3o2)cc1NC(=O)COc1ccc(C(C)C)cc1", "Potency": "inconclusive: 25.1 µM [activator, partial curve]"}
{"smiles": "Cc1c(Cl)cccc1-c1ccc(C(=O)N2CCN(c3ccc([N+](=O)[O-])cc3)CC2)o1", "Potency": "inconclusive: 39.8 µM [inhibitor, single point]"}
{"smiles": "CCOC(=O)c1cccc(NC(=O)CC2C(=O)N(c3ccc(F)cc3)C(=O)N2C(C)C)c1", "note": "(stereo not given)", "max response, negative = inhibition": "inactive: 2.69%"}
{"smiles": "Cc1cccc(OCc2ccc(-c3nc(C#N)c(N4CCC(C(N)=O)CC4)o3)o2)c1", "Potency": "inconclusive: 31.6 µM [activator, single point]"}
{"smiles": "Cc1noc(/C=C/c2ccco2)c1S(=O)(=O)N1CCC(C(=O)Nc2ccc(F)cc2F)CC1", "max response, negative = inhibition": "inactive: -16.7%"}
{"smiles": "O=C(Nc1cnccn1)c1ccncc1", "Potency": "inconclusive: 1 µM [inhibitor, full curve, poor fit]"}
{"smiles": "CN1CCC[C@@H]1c1cccnc1.O=C(O)c1ccccc1O.O=C([OH2+])c1ccccc1O.O=C([OH2+])c1ccccc1O.[Mn]", "max response, negative = inhibition": "inactive: -1.38%"}
{"smiles": "COc1ccc(C(=O)Nc2ccc(NC(=O)c3cccs3)cc2)cc1[N+](=O)[O-]", "max response, negative = inhibition": "inactive: -15.7%"}
{"smiles": "Cc1onc(-c2c(F)cccc2Cl)c1C(=O)OCC(=O)NC(c1ccccc1)c1ccccc1", "Potency": "active: 31.6 µM"}
{"smiles": "COc1ccc(CCNC(=O)CCc2c(C)nc3cc(-c4ccccc4)nn3c2C)cc1OC", "Potency": "inconclusive: 15.8 µM [activator, partial curve]"}
{"smiles": "CCOC(=O)c1sc(=S)n2c1[nH]c(=O)c1ccc(C(=O)OC)cc12", "Potency": "active: 25.1 µM"}
{"smiles": "COc1ccc(C)cc1NS(=O)(=O)c1ccc2c(c1)[C@H]1C=CC[C@H]1[C@@H](c1cccc(Cl)c1)N2", "Potency": "inconclusive: 7.94 µM [inhibitor, full curve, poor fit]"}
{"smiles": "CC1(O)CC2C(CC1O)C2(C)C", "note": "(stereo not given)", "max response, negative = inhibition": "inactive: -4.84%"}
{"smiles": "Cc1ccc(C)c(N2CCN(C(=O)CCS(=O)(=O)c3cccc4nonc34)CC2)c1", "Potency": "inconclusive: 39.8 µM [activator, single point]"}
